Measured values published in PubChem BioAssay AID686979 (National Center for Advancing Translational Sciences (NCATS), 2013).
Hit rate of the full screen: of about 420,000 compounds, about 50,000 (12%) were called active. The shares of active, inactive and inconclusive entries below differ from those in the screen. Calls come from the whole dose curve; as a rule, active = well fitted inhibition curve with a large enough effect; inconclusive = small, poorly fitted or top-dose-only effect; inactive = flat fitted curve, though single readings scatter. Potencies of inconclusive entries are left out as doubtful fits.
% is set by controls: 0 for no effect and ±100 for the full control effect; potency is the fitted concentration of half-maximal effect; tags give direction and shape of the fitted curve.

Test: qHTS for Inhibitors of human tyrosyl-DNA phosphodiesterase 1 (TDP1): qHTS in cells in presence of CPT; note: nearly all actives have a fitted effect of over 55% in size
Settings: chicken DT40 Tdp1-/-;hTDP1 cells + 20 nM CPT, ATP luminescence, 48 h; activity change, negative = growth inhibition: at 46.2 µM (top of the series)
Procedure, shortened: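 Chicken DT40 Tdp1-/- cells complemented with human TDP1, 400 cells/well, exposed to compounds plus 20 nM camptothecin for at least 48 h at 37 C; viability read as ATP content by CellTiter-Glo luminescence.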
In the case of `Cc1ccc(C)c(Cn2c(=O)n(Cc3ccc(C(=O)NC4CCN(Cc5ccccc5)CC4)cc3)c(=O)c3ccccc32)c1`, the Potency is reported as “inactive”. For `O=C(O)CSc1nc2c(cnn2-c2ccccc2)c(=O)n1-c1ccc(Br)cc1`, the Potency was “inactive”. In the case of `O=S(=O)(c1ccc(-c2csc(=Nc3ccccc3)n2CCCN2CCOCC2)cc1)N1CCOCC1`, the Potency is reported as inconclusive [inhibitor, single point]. With `O=C(c1cn[nH]c1)N1CCc2c([nH]c3ccccc23)C1c1c(F)cccc1Cl` (configuration not stated) the Potency was inconclusive [inhibitor, partial curve]. With `CC(C)c1ccc(NC(=O)CSc2nc(=O)n(CCCN3CCOCC3)c3c2CCCC3)cc1` the Potency was inconclusive [inhibitor, single point]. With `Cc1ccccc1OCC(=O)N/N=C/c1ccccn1` the Potency was inconclusive [inhibitor, single point]. With `CCCCC(=O)N=c1sc2cc([N+](=O)[O-])ccc2n1C` the Potency was inconclusive [inhibitor, partial curve, poor fit]. With `Cc1ccc(-c2nc3cccnc3s2)cc1NS(C)(=O)=O` the Potency was inconclusive [inhibitor, single point]. With `COc1ccc(N=Cc2nc(-c3ccccc3)oc2OC(=O)c2ccccc2)cc1` the Potency was active: 20.6 µM. For `O=C(NC(c1ccc(Cl)cc1)c1cnccn1)C1CCN(CCOc2ccc(F)cc2)CC1` (configuration not stated), the Potency was inconclusive [inhibitor, single point]. With `O=C(/C=C/c1ccco1)NC(=S)Nc1cccc(-c2nc3ccccc3o2)c1` the Potency was active: 4.61 µM. In the case of `COc1cc(/C=N/Nc2ccccc2[N+](=O)[O-])ccc1OC(=O)c1ccccc1F`, the Potency is reported as inconclusive [inhibitor, single point]. For `CC(=O)Nc1c(C(=O)O)ccc(C)c1OCc1ccccc1`, the Potency was “inactive”. In the case of `COc1ccc(NC(=O)CN2C(=O)NC(C)(c3ccc4c(c3)OCCO4)C2=O)cc1S(N)(=O)=O` (configuration not stated), the activity change, negative = growth inhibition is reported as inconclusive: -27.9% [inhibitor]. For `Cc1c(C(=O)O)cccc1-n1c(C)cc(/C=C(/C#N)C(=O)NCc2ccccc2)c1C`, the Potency was “inactive”. In the case of `Cc1cc(N)ccc1N1CCCC1`, the Potency is reported as inconclusive [inhibitor, partial curve, poor fit]. For `CNc1cc(C(=O)Nc2cccc(OCc3ccccc3)c2)ncn1`, the Potency was inconclusive [inhibitor, single point]. For `CC1(C)CCSC(/C=C/c2ccccc2)=N1`, the Potency was active: 4.61 µM. With `Cc1ccc(O)c(NC(=O)c2noc3c2CCCCC3)c1` the Potency was inconclusive [inhibitor, single point]. In the case of `COC(C[C@H](O)C[C@H](O)[C@H](C)OCc1ccccc1)OC`, the Potency is reported as “inactive”. With `Cc1ccc(C)c(/C=C(\C(=O)O)c2ccc(S(=O)(=O)N3CCCCC3)s2)c1` the Potency was “inactive”. For `CCc1ccc(NC(=O)C(=O)NCCN2CCN(C(=O)c3ccc(OC)cc3)CC2)cc1`, the Potency was inconclusive [inhibitor, single point]. In the case of `O=C(CC1C(=O)N(c2ccc(F)cc2)C(=O)N1Cc1ccc2c(c1)OCO2)Nc1ccc(F)cc1` (configuration not stated), the Potency is reported as inconclusive [inhibitor, single point]. In the case of `N#C/C(=C/c1cc(Cl)c(O)c(Cl)c1)C(=O)N1CCCCC1`, the Potency is reported as “inactive”. With `Cc1cc([N+](=O)[O-])ccc1NS(=O)(=O)c1ccccc1` the Potency was inconclusive [inhibitor, single point]. With `S=C(NC1CCCCC1)NN(c1ccccc1)c1ccccc1` the Potency was inconclusive [inhibitor, single point]. With `CC(=O)N1c2ccccc2CC1C(=O)N1CCN(c2cccc(Cl)c2)CC1` (configuration not stated) the Potency was inconclusive [inhibitor, partial curve]. For `O=C(O)c1ccc(-n2cc(-c3cc4ccccc4oc3=O)[nH]c2=S)cc1`, the Potency was “inactive”. For `COc1cc(NC(=O)c2ccc(C(=O)c3ccccc3)cc2)cc(OC)c1OC`, the Potency was inconclusive [inhibitor, partial curve]. With `Cc1ccc(C(=O)/C=C/Nc2ccccc2C(N)=O)cc1` the Potency was “inactive”. In the case of `CCCCCCCCCCCCCC(=O)Nc1ccc(/C=C/c2ccnc3ccccc23)cc1`, the Potency is reported as active: 11.2 µM. In the case of `Cc1cc(Cl)c(S(=O)(=O)N2CCN(c3ccc(F)cc3)CC2)cc1OCC(=O)NC1CCCCC1`, the Potency is reported as active: 11.6 µM. In the case of `COc1ccc2[nH]c(=O)c(CN(CCCN(C)C)C(=O)Nc3ccccc3)cc2c1`, the Potency is reported as inconclusive [inhibitor, single point]. With `FC(F)(F)c1cccc(CNC(=S)Nc2ccccc2)c1` the Potency was inconclusive [inhibitor, single point]. In the case of `CCCCCC(=O)NC(=S)Nc1cccc(C(C)=O)c1`, the Potency is reported as “inactive”. With `COc1ccc(OC)c(NC(=O)C2(C)CCN2CCOc2ccccc2)c1` (configuration not stated) the Potency was active: 23.1 µM. For `COc1cc(C(=O)NCCc2c[nH]c3ccccc23)ccc1OCc1c(C)noc1C`, the activity change, negative = growth inhibition was inconclusive: -33.6% [inhibitor]. For `COc1cc2c(cc1OC)C(C)N(C(=O)[C@@H](NC(=O)c1ccccc1)C(C)C)CC2` (some centres not stated), the activity change, negative = growth inhibition was inconclusive: -43.1% [inhibitor]. With `COc1ccc(N2CC(C)(C)[C@H](CC(=O)Nc3ccc(Br)cc3)C2=O)cc1` the Potency was inconclusive [inhibitor, single point]. In the case of `COc1ccc(CN2CCN(C(=O)c3c(-c4ccccc4)noc3C)CC2)cc1F`, the Potency is reported as inconclusive [inhibitor, partial curve]. For `O=C(O)c1cc(Cl)c2c(c1)[C@@H]1C=CC[C@@H]1[C@H](c1ccc(S(=O)(=O)N3CCOCC3)cc1)N2`, the Potency was “inactive”. For `Cc1c(N=NC2=C(O)CCCC2=O)c(=O)n(-c2ccccc2)n1C`, the Potency was inconclusive [inhibitor, single point]. In the case of `CCn1c(=NC(=O)CN2C(=O)CCC2=O)sc2c(OC)ccc(OC)c21`, the Potency is reported as inconclusive [inhibitor, single point]. For `COc1cccc(CNC(=O)CN2C(=O)CCCc3ccccc32)c1OC`, the Potency was “inactive”. With `O=C1CC(c2ccccc2)CC(O)=C1C=Nc1ccccc1O` (configuration not stated) the Potency was inconclusive [inhibitor, single point]. With `CCNCc1cc2cc(C)ccc2[nH]c1=O` the Potency was active: 18.4 µM. With `CC(=O)C1CCC2C3CC=C4CC(O)CC[C@@]4(C)C3CC[C@]12C` (some centres not stated) the Potency was “inactive”. For `CC1=C(C(=O)Nc2cccc(C(=O)NC(C)c3ccccc3)c2)SCCO1` (configuration not stated), the Potency was inconclusive [inhibitor, full curve, poor fit]. In the case of `CCN(c1ncnc2c1cnn2-c1cc(Cl)ccc1C)C1CCCCC1`, the Potency is reported as active: 14.6 µM. In the case of `Cc1ccc(N2CCN(CCc3nc4cc(NC(=O)c5ccco5)ccc4n3C)CC2)cc1`, the Potency is reported as inconclusive [inhibitor, single point]. For `O=C(c1cn(Cc2ccccc2)nc1-c1cccnc1)N1CCN(Cc2c(F)cccc2Cl)CC1`, the Potency was inconclusive [inhibitor, single point]. In the case of `Cc1ccc(C)c(CN2C(=O)c3ccccc3S(=O)(=O)c3ccc(C(=O)N4CCCC4)cc32)c1`, the Potency is reported as inconclusive [inhibitor, single point]. For `Cc1cc(C)nc(NC2=NC3CCCCC3N2)n1` (configuration not stated), the Potency was active: 20.6 µM. With `O=C(N=C1SC2CS(=O)(=O)CC2N1Cc1ccc(F)cc1)C1CC1` (configuration not stated) the Potency was “inactive”. For `CCOC(=O)c1cnc2c(C)cccc2c1NCCc1ccc(OC)c(OC)c1`, the Potency was active: 16.4 µM. In the case of `CCOC(=O)CSc1nc2c(sc3ccccc32)c(=O)n1Cc1ccc(C)cc1`, the Potency is reported as active: 20.6 µM. With `CC(=O)NCCNc1nc2c(-c3ccc(C)cc3)nnn2c2ccccc12` the Potency was “inactive”. In the case of `c1ccc2cc(OCc3nc4ccccc4[nH]3)ccc2c1`, the Potency is reported as inconclusive [inhibitor, single point]. For `O=C1CCCC/C=C\C[C@H](CC(=O)N(CCO)Cc2ccccc2)C(=O)NC[C@H](c2ccccc2)O1`, the Potency was inconclusive [inhibitor, single point]. For `CCc1sc(Nc2ccc(C)cc2Br)nc1-c1cc2cccc(OC)c2oc1=O`, the Potency was inconclusive [inhibitor, single point]. In the case of `CCc1c(C)nc2c(OC)cccc2c1Cl`, the Potency is reported as inconclusive [inhibitor, single point]. For `COc1cc2c(cc1OC)C(c1ccc([N+](=O)[O-])cc1)NC(=O)C2` (configuration not stated), the Potency was “inactive”. With `Cc1cc(C)cc(NC(=O)COc2coc(CN3CCc4ccccc43)cc2=O)c1` the Potency was inconclusive [inhibitor, partial curve]. For `Cc1ccc2nc(NC(=O)C3CCN(S(=O)(=O)c4cccs4)CC3)sc2c1`, the Potency was active: 23.1 µM. With `CCOc1cc(N2CCOCC2)c(OCC)cc1NC(=O)Cn1cnnn1` the Potency was “inactive”. With `NS(=O)(=O)c1ccc(Sc2ccccn2)c([N+](=O)[O-])c1` the Potency was “inactive”. For `COc1ccc(N2CCN(C(=O)C(NC(=O)c3c(F)cccc3F)C(C)C)CC2)cc1` (configuration not stated), the Potency was inconclusive [inhibitor, partial curve]. In the case of `Cc1occc1-c1nnc(SCC(=O)Nc2ccccc2N2CCCCC2)n1C`, the Potency is reported as active: 18.4 µM. In the case of `Cc1nnsc1C(=O)N1CCCC(Nc2ccc(F)c(F)c2)C1` (configuration not stated), the Potency is reported as “inactive”. In the case of `CCCN1C(=O)SC(CC(=O)Nc2ccc(Br)cc2)C1=O` (configuration not stated), the Potency is reported as inconclusive [inhibitor, single point]. For `COc1ccc(-c2cn3c(C)c(C(=O)N4CCCc5ccccc54)sc3n2)cc1`, the Potency was inconclusive [inhibitor, single point]. With `O=C(Cn1c2c(c(-c3ccccc3Cl)cc1=O)CCC2)NCCCN1CCOCC1` the Potency was inconclusive [inhibitor, single point].
